Sequences with one replicate were seen in a single cluster, so their values are uncertain.
System: ATP
Assay: switch fluorescence ratio, 500 uM ATP over buffer (Cy3 cluster intensity, sum of 5 cycles each) (fold (ratio)); higher = stronger signal-on switching upon ATP binding; sequences stand for … in TCGTCGGCAGCGTCAGATGTGTATAAGAGACAGTTTTTTTTTTTTTTTTTTTTTTTTT…TC
Details: aptamer strand: ATP DNA aptamer (quencher-CACCTGGGGGAGTATTGCGGAGGAAGG + anchor), 100 nM annealed; ATP concentration: 500 uM; one replicate
How it was run: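 Clusters with intensities outside 100-1000 RFU were excluded. The remaining Cy3-labelled switching-strand clusters on a modified Illumina MiSeq flow-cell had been annealed to 100 nM quencher-labelled ATP aptamer and imaged in selection buffer, then after 15 min with 500 uM ATP at 22 °C, for five cycles separated by NaOH stripping and re-annealing. The fluorescence ratio, averaged per switch-domain sequence, is each cluster's summed target-cycle Cy3 intensity over its summed buffer-cycle Cy3 intensity.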
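Note: ATP exposure 15 min at 22 °C before imaging.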

Row | Sequence | switch fluorescence ratio
1 | GCCTGCTCAC | 1.12
2 | CGAAGGGTTC | 1.02
3 | CGCGGCGAAC | 1.03
4 | CCACATGAGC | 1.05
5 | CGTTGTCTGA | 0.991
6 | CCGGGGGGCA | 1.05
7 | TCCAAGCTAG | 1.14
8 | CTTAATGGAT | 0.998
9 | GAGGCATGTA | 1.06
10 | AGGTAGGGG | 0.983
11 | AAGGGCAGTC | 0.991
12 | TGGAGCTCAA | 1.06
13 | GCCTGAGAGT | 0.962
14 | ACTTGGGTCC | 0.999
15 | AATAGTAGTC | 0.991
16 | GTCCGCGCAT | 3.73
17 | CACTTATTCA | 1.05
18 | TGTAAAGCCT | 1.14
19 | GAATCAACGG | 1.04
20 | GCGGACAGTG | 0.988
21 | ATTCCTCACC | 1.27
22 | TCCACGTGCT | 0.974
23 | ACTGTGGCTT | 1.01
24 | CAAGGATGGG | 0.97
25 | TTTCATCACT | 0.987

Row | Sequence | switch fluorescence ratio
26 | CAATAGGTT | 1.01
27 | ATCGCGCTCT | 1.01
28 | ATCAGAGGGT | 1.02
29 | GTTATTAGTA | 0.966
30 | AAGCTGGATG | 0.994
31 | ATAGCTGTA | 0.892
32 | CGCGTCATGC | 1.09
33 | CAGACTGGGT | 1
34 | TTAGGTAAAG | 0.958
35 | ACGTCTGTCC | 1
36 | CTATAATGTG | 0.984
37 | AGTTAGACGT | 0.959
38 | GGTGGTGCGC | 0.976
39 | CGCGACTCA | 1.25
40 | GGCGTGACTC | 1.08
41 | ACATGCGACT | 0.999
42 | AGGTCCTCTT | 1.03
43 | CATAACGAGG | 1.02
44 | CCTATGGATC | 1.04
45 | GGGTACTCGA | 0.994
46 | AAAGTGAAGA | 1
47 | ATGATACTCT | 1.05
48 | CACTGTCGCC | 1.02
49 | TCATATTGCA | 1.02
50 | AGTGATGGTC | 0.997

Row | Sequence | switch fluorescence ratio
51 | AGTGAGGGTT | 1.03
52 | GGAGGGTTGA | 1.03
53 | AGGAGTAGTT | 1.02
54 | TACGTCGTGG | 1.04
55 | CTAAGCGTA | 0.992
56 | CTGTTCATGC | 0.993
57 | GGCATCAGGT | 1.05
58 | CCTGCTTTCG | 1.07
59 | ACCCAAAAAA | 1.04
60 | AGGAGGCCGT | 1.01
61 | TTCTAAGTG | 1.02
62 | CAGGAGCGTC | 1.48
63 | ATTATCTAAG | 0.998
64 | AAACGCTCCT | 1.16
65 | AATCCGGCTC | 1.08
66 | CGAGGTGGG | 1.03
67 | TATTATACGG | 1.04
68 | TTGCTCACTG | 0.996
69 | GAACACCCT | 1.14
70 | GTTTGAGGAT | 1.04
71 | AAAGGTCTAT | 0.995
72 | GTTTGATTCT | 1
73 | ATCGACGCT | 1.74
74 | ACTAACTGGA | 1.11
75 | TGCTTGGCGG | 0.996

Row | Sequence | switch fluorescence ratio
76 | GCCAGTGTA | 1.02
77 | ACAAATGTGC | 1.1
78 | TTCGTGCTCC | 1.04
79 | CGCGGTGGC | 1.06
80 | TTAGCGGTG | 0.971
81 | ATACTTGTTG | 0.953
82 | TTGTAAGAAG | 1.01
83 | TTTCGATCGC | 1.21
84 | AAACTCGTTA | 0.989
85 | AGAGTATTCG | 1.33
86 | TGTTAAACAT | 1.02
87 | GAAAGAGTAG | 1.05
88 | GTGTGGCGAC | 0.934
89 | CGGCGGTTAA | 1.03
90 | CACGATTCAA | 1.02
91 | GGGATATGTC | 0.868
92 | ACCGGTATTC | 1.01
93 | TTAAATATTG | 0.994
94 | TCATATGATG | 1.01
95 | GGTTTCAGAC | 1.04
96 | CGTAAAGCTA | 1.05
97 | GTAGGAAGGC | 1.15
98 | AATGGGATAA | 1.05
99 | ATAGGCAACC | 1.07
100 | GGAATACGTG | 1.1

Row | Sequence | switch fluorescence ratio
101 | TGGGCGAGGG | 0.979
102 | TTTCGACATT | 1.1
103 | AAGGAAAGTA | 0.957
104 | GCCGTGGAGG | 1.05
105 | ACCATTAGGA | 1
106 | CGACGAAGGA | 1.23
107 | GGCGGAACCT | 1.58
108 | GGGGTCGGAT | 0.99
109 | CGAAGGGGAT | 0.988
110 | CGCACAGTGA | 1.05
111 | ATGCCTTGCT | 0.977
112 | ATCAGCATTT | 1.05
113 | AAACGGTATC | 1.04
114 | CGGTGCGGC | 0.942
115 | AAGCGGGGGA | 1.04
116 | ACCTGCTATG | 1.03
117 | GAATGCCTGG | 0.974
118 | GTTTGAGATG | 0.971
119 | TAATGACCCG | 1.1
120 | CCAAGTGGTA | 1.01
121 | GGCTGCTCCC | 1.24
122 | CGTATGTTTG | 1.09
123 | AATCAGCAGC | 1.15
124 | CCGGCGCGAG | 4.66
125 | TTGTTTCTAG | 0.993

Row | Sequence | switch fluorescence ratio
126 | AGACTTAAAA | 1.03
127 | AAAAGTATGA | 1.06
128 | AATAAGCGCT | 1.04
129 | TGCCGTCTGC | 0.944
130 | GCCCATCTTC | 0.984
131 | CGCTATGCCC | 1.13
132 | GCGACGCCTA | 1.42
133 | TTCCCGCTTT | 1.34
134 | TTCAATCTCA | 1.01
135 | CGCGCTCATA | 1.1
136 | ACAAGTTTGT | 0.964
137 | TGTTGTCAGC | 1.02
138 | AAAATGTAAC | 1.09
139 | CATCACGAGT | 1.01
140 | GCTCGCGATT | 1.31
141 | AGATACAGCT | 1.02
142 | TTTTTCTGGC | 0.942
143 | TATCCTTTGC | 1.08
144 | TGTTTTTCGG | 0.984
145 | CTGCTGTGGA | 1.02
146 | CAACTAAGCC | 0.983
147 | AAAGGCAAGA | 2.53
148 | GGTGGCTAAA | 0.967
149 | GGCAGGGAGT | 0.946
150 | ACACGACACA | 1.64

Row | Sequence | switch fluorescence ratio
151 | GTGGGGAGGC | 0.953
152 | GGCTCGTTTT | 0.997
153 | GCCATCCTCA | 1.12
154 | TGGGTGTAAG | 0.988
155 | CTTGGACTG | 1.1
156 | CGGTCCGGAC | 0.957
157 | CAGCGTCGGC | 0.944
158 | CATTTATTGA | 0.966
159 | ACGTTTCTGT | 0.987
160 | CCAGGACCAA | 1.07
161 | AGAGTCCAGA | 0.947
162 | CGCCTGCCTA | 1.04
163 | CGGCCGGTGT | 1.03
164 | CGGTCGTTGA | 1.02
165 | ATGCGGACGG | 1.04
166 | CAGTGGCCCC | 1.01
167 | GCATACTCGG | 1.56
168 | GGTGGCATAC | 2.29
169 | TATTACGGAC | 1.36
170 | TTCCGTAATG | 2.55
171 | ACTGCGTTAT | 1.07
172 | TGGGTTGCAA | 0.973
173 | AAAGCAGCGT | 0.985
174 | GCAGGGAGGA | 0.963
175 | TGACCTGGGG | 1.04

Row | Sequence | switch fluorescence ratio
176 | CTCAAACGT | 1.06
177 | TAGCCTGGGA | 1.2
178 | CGTAGATATT | 1.02
179 | GCTGTGGCTG | 0.979
180 | ATGATCCACT | 1.03
181 | TGGGTGCGGG | 0.942
182 | GCGGATCCTG | 1.02
183 | CATGTAAGCC | 1
184 | ACGGTAACTT | 1.24
185 | ATGCAAAAGG | 0.983
186 | AAACGTTTAT | 0.97
187 | TGTCGCGCTT | 1.07
188 | TATTTTTCGT | 0.998
189 | CTTCGGTGGG | 0.998
190 | TTGATGATTT | 0.968
191 | TGATGGGTGG | 0.985
192 | TAAGGGTAAC | 1.16
193 | TGGTGAAGTG | 0.993
194 | CTTAATATAT | 0.98
195 | GGTGTTTAAA | 0.949
196 | CTTTGGCCAT | 1.04
197 | AGTTAACATC | 1.02
198 | AAGCCGCGTC | 3.55
199 | GGTTTCACGT | 0.977
200 | CATGGACGAT | 1.04

Reference: the supplement of paper PMC10126150
